Screen size: about 410,000 compounds; about 6,400 (1.6%) were called active. Inconclusive results, whose numbers are uncertain, are shown with a selection of clear calls. Calls follow the shape of the dose curve; as a rule, active = well fitted inhibition curve with a large enough effect; inconclusive = small, poorly fitted or top-dose-only effect; inactive = no such curve, though single readings can be large or run the other way. No potency is given beside an inconclusive call; the fits are too rough.
target: Glucagon-like peptide 1 receptor (Homo sapiens) (UniProt P43220); assay: qHTS of GLP-1 Receptor Inverse Agonists (Inhibition Mode); details: HEK293 GLP-1R CRE-luciferase, luminescence, 24 h, GLP-1R form is constitutively active; series mostly up to 38.3 µM; also: nearly all actives have a fitted effect of over 55% in size
Summary of the method: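 Stable HEK293 clone (constitutively active GLP-1R + cAMP-response luciferase); 200 cells/uL plated, 12 h pre-culture, compound 24 hr, 37 deg C/5% CO2; detection reagent 12 min RT; luminescence.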
Potency is read from the fitted curve at half-maximal effect; tags tell the direction and shape of the fitted curve.

Chain of UniProt P43220 (P43220 whole entry, looked up): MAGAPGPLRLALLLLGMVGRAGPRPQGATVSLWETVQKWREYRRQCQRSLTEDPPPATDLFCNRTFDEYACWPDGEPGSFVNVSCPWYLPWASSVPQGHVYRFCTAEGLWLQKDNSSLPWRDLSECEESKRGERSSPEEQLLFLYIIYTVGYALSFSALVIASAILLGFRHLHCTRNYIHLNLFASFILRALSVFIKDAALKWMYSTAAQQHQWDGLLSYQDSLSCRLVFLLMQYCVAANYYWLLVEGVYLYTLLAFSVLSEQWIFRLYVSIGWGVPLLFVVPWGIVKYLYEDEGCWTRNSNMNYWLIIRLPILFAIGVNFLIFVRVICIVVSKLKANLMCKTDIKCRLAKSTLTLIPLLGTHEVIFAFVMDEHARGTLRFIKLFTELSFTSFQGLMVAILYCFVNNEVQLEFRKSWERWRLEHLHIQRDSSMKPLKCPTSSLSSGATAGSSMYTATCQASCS

SMILES	Potency
CC#CC(=O)N1CCC(n2nccc2NC(=O)CCc2ccccc2)CC1	inactive
CNC(=O)c1cc(C(=O)c2ccc(Cl)cc2)c[nH]1	inactive
Cc1sc2ncnc(N3CCC(C(=O)N(C)CC(=O)Nc4cccc(F)c4)CC3)c2c1C	inconclusive [inhibitor, partial curve, poor fit]
COc1cccc(CNC(=O)c2cc(S(=O)(=O)N3CCCCC3)ccc2C)c1	inconclusive [inhibitor, single point]
O=C(N/N=C/c1ccccc1OC(=O)c1ccc2c(c1)OCO2)c1ccccc1	inconclusive [inhibitor, partial curve]
COc1ccc2nc(N=Nc3ccc(N(C)C)cc3)sc2c1	inconclusive [inhibitor, full curve, poor fit]
O=C(C1=C[C@H](c2ccc(C(F)(F)F)cc2)C[C@H](OCc2ccc(CO)cc2)O1)N1CCN(Cc2ccc3c(c2)OCO3)CC1	active: 10 µM
CC1CCc2cc(F)ccc2N1S(=O)(=O)c1ccc(F)cc1 (stereo not drawn)	inconclusive [inhibitor, single point]
Cc1cc(C(=O)Nc2ccc(OCc3ccccc3)cc2)c(C)o1	inconclusive [inhibitor, single point]
COc1ccc(N2CCN(C(=O)NCc3ccc(C)cc3)CC2)cc1	inconclusive [inhibitor, single point]
Cn1cc(CN2CCCC(CNC(=O)c3ccc4c(c3)OCO4)C2)c2ccccc21 (stereo not drawn)	inconclusive [inhibitor, partial curve]
CN(C)CCCNC(=O)c1cc(C(=O)C2CCCCC2)c[nH]1	inconclusive [inhibitor, partial curve, poor fit]
CCc1ccc(CN(C)Cc2nc(Cc3cccc(C(F)(F)F)c3)no2)nc1	inconclusive [inhibitor, partial curve, poor fit]
CNC(=O)[C@@H]1CCC(=O)N1	inactive
CCCSc1nsc(NC(=O)CC)n1	inactive
CN(C)CCCNc1nc2sc3c(c2c(=O)n1CCc1ccccc1)CCCCC3	active: 3.16 µM
CCOC(=O)c1cccc(NC(=O)c2cc3ccccc3o2)c1	inconclusive [inhibitor, single point]
O=C1CC[C@@H](OCc2ccccc2)CCN1CC[C@H](Sc1ccccc1)c1ccccc1	inconclusive [inhibitor, partial curve, poor fit]
O=[N+]([O-])c1cccc(S(=O)(=O)c2ccc(N3CCCCC3)c([N+](=O)[O-])c2)c1	inconclusive [inhibitor, single point]
COc1ccc(C2NCCc3c2[nH]c2ccccc32)cc1COc1ccc(F)cc1 (stereo not drawn)	inconclusive [inhibitor, partial curve, poor fit]
N#C/C(=N\Nc1ccc(Cl)cc1)C(N)=S	inconclusive [inhibitor, full curve, poor fit]

SMILES	Potency
CNC(=O)C1CN(C(=O)c2cccc(S(=O)(=O)N3CCc4ccccc43)c2)c2ccccc2O1 (stereo not drawn)	inconclusive [inhibitor, partial curve]
CCOc1ccc(-n2c(SCc3ccc([N+](=O)[O-])cc3)nnc2-c2ccc(OC)cc2)cc1	inconclusive [inhibitor, partial curve, poor fit]
CC(C)Oc1cccc(C(=O)NC(=S)Nc2ccc(N3CCN(C)CC3)cc2)c1	inconclusive [inhibitor, single point]
Cc1cccc(-c2cc3nc4c(c(NCc5ccco5)n3n2)CCCC4)c1	inconclusive [inhibitor, single point]
O=C(N/N=C/c1ccccn1)c1ccncc1	inactive
CCNc1c(NS(=O)(=O)c2ccc(Br)s2)c(=O)oc2ccccc12	inconclusive [inhibitor, single point]
CCN(c1ccccc1)S(=O)(=O)c1ccc(Cl)c(NC(=O)CSc2nnc(C)s2)c1	inconclusive [inhibitor, partial curve, poor fit]
COc1ccc(-c2nc(NC(=O)C3CC(=O)N(Cc4ccco4)C3)sc2C)cc1 (stereo not drawn)	inconclusive [inhibitor, partial curve, poor fit]
CCC(=O)Oc1ccc(NC(=O)c2ccc(S(=O)(=O)N3CCCC3)cc2)cc1	inconclusive [inhibitor, single point]
CC(C)(C)OC(=O)NCCCCCc1nnc(SCc2cccc(F)c2)o1	inconclusive [inhibitor, partial curve, poor fit]
Cc1ccc(NC(=O)Nc2nnc(N3CCCCC3)s2)c(C)c1	inactive
CC(C)(C)OC(=O)N1CCC(NC(=O)c2ncn(Cc3ccccc3)c2C(=O)NC2CCN(C(=O)OC(C)(C)C)CC2)CC1	inconclusive [inhibitor, partial curve, poor fit]
CC(C)c1ccc(C(=O)N/N=C/c2cccc(Cl)c2Cl)cc1	inactive
Cc1ccc2nc(-c3ccccc3)c(Cc3cccc(Cl)c3)n2c1	inconclusive [inhibitor, partial curve, poor fit]
CC(C)c1ccc(Nc2nc3ccc(C(=O)c4ccccc4)cc3n3cnnc23)cc1	inactive
O=C1N(Cc2cccc(Cl)c2)C[C@@H]2C[C@@H](c3cccn3-c3ccccn3)N3CCC[C@@]123	inconclusive [inhibitor, single point]
CCOc1ccc(-c2nnc(Nc3ccc(OC)c(C(=O)N4CCCCC4)c3)c3ccccc23)cc1	inconclusive [inhibitor, partial curve, poor fit]
Cc1cccc(OCC(=O)N2CCc3ccccc3C2)c1C	inconclusive [inhibitor, single point]
C=CCOc1ccc(/C=C/C(=O)OCC(=O)Nc2c(C)n(C)n(-c3ccccc3)c2=O)cc1	inconclusive [inhibitor, single point]
O=S(=O)(c1ccccc1)N(CC(O)Cn1c2ccccc2c2ccccc21)c1ccccc1 (stereo not drawn)	inconclusive [inhibitor, partial curve, poor fit]
COc1ccc(NC(=O)N2CCc3c(sc4c3CCCC4)C2c2ccc(F)cc2)cc1 (stereo not drawn)	active: 2.82 µM

SMILES	Potency
O=C(CCSCc1ccccc1F)N1CCN(c2ccc(F)cc2)CC1	inconclusive [inhibitor, partial curve, poor fit]
CCC(C)NCCC(=O)Nc1ccc(Cl)c(S(=O)(=O)Nc2ccc(Cl)cc2)c1 (stereo not drawn)	inconclusive [inhibitor, partial curve, poor fit]
CCN1N=C(c2cc(Cl)sc2Cl)CSC1=O	inconclusive [inhibitor, single point]
CCc1nc2ccc(C(=O)Nc3cccc(OC)c3)cn2c1N(CCC(C)C)CCN(C)C	inconclusive [inhibitor, partial curve, poor fit]
Cn1nnc2cc(NC(=O)NCc3ccc4c(c3)OCO4)ccc21	inactive
Cc1ccc(NC(=O)COc2ccccc2)c(NC(=O)c2ccco2)c1	inconclusive [inhibitor, single point]
CCn1c(=NC(=O)CSC(C)=O)sc2cc(F)ccc21	inactive
Cc1ccc(N(CC(=O)NCCSCc2ccco2)S(=O)(=O)c2ccc(F)cc2)cc1	inconclusive [inhibitor, single point]
COc1ccc(-c2ccc(NC(=O)c3ccco3)cc2)nn1	active: 7.08 µM
CN(C)CCOCCOc1ccc(Cl)cc1Br	inconclusive [inhibitor, partial curve, poor fit]
O=C(NCCC1=CCCCC1)Nc1ccc2nsnc2c1	inconclusive [inhibitor, single point]
O=C1c2[nH]nc(-c3ccccc3O)c2C(c2cccc(Cl)c2)N1CC1CCCO1 (stereo not drawn)	inconclusive [inhibitor, partial curve, poor fit]
O=C(CSc1nnc(-c2ccc(O)cc2)n1Cc1ccccc1)NNC(=O)c1ccc(Br)cc1	inconclusive [inhibitor, partial curve, poor fit]
O=C1Nc2ccccc2/C1=C/c1cccnc1	inconclusive [inhibitor, single point]
NC(=O)C1CCCN(C(=O)c2ccc(NC(=O)c3cccs3)cc2)C1 (stereo not drawn)	inactive
COc1ccc(CNC(=O)[C@H](C)[C@@H]2C[C@@]2(C)[C@@H](NC(=O)OCc2ccccc2)c2ccccc2)cc1OC	inconclusive [inhibitor, single point]
COc1ccc(C)cc1NC(=O)CN1CCN(c2ccc(F)cc2)CC1	inconclusive [inhibitor, partial curve, poor fit]
COc1ccc(Cl)cc1NC(=O)CN1CCc2ccccc2C1	inconclusive [inhibitor, partial curve, poor fit]
COc1ccc([N+](=O)[O-])cc1Nc1c2ccccc2nc2ccccc12	inconclusive [inhibitor, full curve, poor fit]
CCCCCC(C)NC(=O)CN1C(=O)NC(C)(c2ccc3ccccc3c2)C1=O (stereo not drawn)	inconclusive [inhibitor, partial curve, poor fit]
CCOC(=O)c1[nH]c(C)c(C(=O)Nc2ccccc2C)c1C	inconclusive [inhibitor, full curve, poor fit]

Reference: PubChem BioAssay AID624417 (National Center for Advancing Translational Sciences (NCATS), 2012)
